# This is one part of the list.
# B1: SBD-G4S3-SBD (protein)
# chain: MASIPSSASVQLDSYNYDGSTFSGKIYVKNIAYSKKVTVVYADGSDNWNNNGNIIAASFSGPISGSNYEYWTFSASVKGIKEFYIKYEVSGKTYYDNNNSANYQVSTGGGGSGGGGSGGGGSEFASIPSSASVQLDSYNYDGSTFSGKIYVKNIAYSKKVTVVYADGSDNWNNNGNIIAASFSGPISGSNYEYWTFSASVKGIKEFYIKYEVSGKTYYDNNNSANYQVST
# What was measured:
# Assay in all cases: glycan array binding signal (z-score within array); higher = stronger binding
# Settings in all cases: glycan notation: IUPAC condensed, linker removed
# [1] = biological target: Fuc(a1-3)GlcNAc
# Method in brief: (§1)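 Glycan array data came from 3228 arrays in the Consortium for Functional Glycomics database, and only arrays with an available protein sequence were kept. Glycan names were put into IUPAC-condensed notation, and columns mapping to the same glycan were averaged. The binding signal is a within-array Z-score, averaged across arrays of one protein sequence run at different concentrations or buffers and across linkers. A negative Z-score can be read as non-binding.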
# [2] = biological target: Fuc(a1-3)[Gal(b1-4)]Glc6S
# Method in brief: as §1
# [3] = biological target: Fuc(a1-3)[Gal(b1-4)]GlcNAc
# Method in brief: as §1
# [4] = biological target: Fuc(a1-3)[Gal(b1-4)]GlcNAc(b1-2)Man
# Method in brief: as §1
# [5] = biological target: Fuc(a1-3)[Gal(b1-4)]GlcNAc(b1-2)Man(a1-3)[Fuc(a1-3)[Gal(b1-4)]GlcNAc(b1-2)Man(a1-6)]Man(b1-4)GlcNAc(b1-4)GlcNAc
# Method in brief: as §1
# [6] = biological target: Fuc(a1-3)[Gal(b1-4)]GlcNAc(b1-2)Man(a1-3)[Fuc(a1-3)[Gal(b1-4)]GlcNAc(b1-2)Man(a1-6)]Man(b1-4)GlcNAc(b1-4)[Fuc(a1-6)]GlcNAc
# Method in brief: as §1
# [7] = biological target: Fuc(a1-3)[Gal(b1-4)]GlcNAc(b1-3)Gal(b1-3)[Fuc(a1-4)]GlcNAc
# Method in brief: as §1
# [8] = biological target: Fuc(a1-3)[Gal(b1-4)]GlcNAc(b1-3)Gal(b1-4)[Fuc(a1-3)]GlcNAc
# Method in brief: as §1
# [9] = biological target: Fuc(a1-3)[Gal(b1-4)]GlcNAc(b1-3)Gal(b1-4)[Fuc(a1-3)]GlcNAc(b1-3)Gal(b1-4)[Fuc(a1-3)]GlcNAc
# Method in brief: as §1
# [10] = biological target: Fuc(a1-3)[Gal(b1-4)]GlcNAc(b1-3)GalNAc
# Method in brief: as §1
# [11] = biological target: Fuc(a1-3)[Gal(b1-4)]GlcNAc(b1-6)GalNAc
# Method in brief: as §1
# [12] = biological target: Fuc(a1-3)[Gal(b1-4)]GlcNAc(b1-6)[Gal(b1-3)GlcNAc(b1-3)]Gal(b1-4)Glc
# Method in brief: as §1
# [13] = biological target: Fuc(a1-3)[Gal(b1-4)]GlcNAc6S
# Method in brief: as §1
# [14] = biological target: Fuc(a1-3)[Gal3S(b1-4)]Glc
# Method in brief: as §1
# [15] = biological target: Fuc(a1-3)[Gal3S(b1-4)]GlcNAc
# Method in brief: as §1
# [16] = biological target: Fuc(a1-3)[Gal3S(b1-4)]GlcNAc6S
# Method in brief: as §1
# [17] = biological target: Fuc(a1-3)[GalNAc(b1-4)]GlcNAc
# Method in brief: as §1
# [18] = biological target: Fuc(a1-3)[GalNAc(b1-4)]GlcNAc6S
# Method in brief: as §1
# [19] = biological target: Fuc(a1-4)GlcNAc
# Method in brief: as §1
# [20] = biological target: Fuc(b1-3)GlcNAc
# Method in brief: as §1
# [21] = biological target: Gal(a1-2)Gal
# Method in brief: as §1
# [22] = biological target: Gal(a1-3)Gal
# Method in brief: as §1
# [23] = biological target: Gal(a1-3)Gal(b1-3)GlcNAc
# Method in brief: as §1
# [24] = biological target: Gal(a1-3)Gal(b1-3)GlcNAc(b1-2)Man
# Method in brief: as §1
# [25] = biological target: Gal(a1-3)Gal(b1-3)GlcNAc(b1-2)Man(a1-3)[Gal(a1-3)Gal(b1-3)GlcNAc(b1-2)Man(a1-6)]Man(b1-4)GlcNAc(b1-4)GlcNAc
# Method in brief: as §1
# [26] = biological target: Gal(a1-3)Gal(b1-3)GlcNAc(b1-3)GalNAc
# Method in brief: as §1
# [27] = biological target: Gal(a1-3)Gal(b1-3)GlcNAc(b1-6)GalNAc
# Method in brief: as §1
# [28] = biological target: Gal(a1-3)Gal(b1-3)[Fuc(a1-4)]GlcNAc(b1-2)Man(a1-3)[Gal(a1-3)Gal(b1-3)[Fuc(a1-4)]GlcNAc(b1-2)Man(a1-6)]Man(b1-4)GlcNAc(b1-4)GlcNAc
# Method in brief: as §1
# [29] = biological target: Gal(a1-3)Gal(b1-4)Glc
# Method in brief: as §1
# [30] = biological target: Gal(a1-3)Gal(b1-4)GlcNAc
# Method in brief: as §1
binder,measurement,setting,value
B1,glycan array binding signal (z-score),[1],-0.388
same,glycan array binding signal (z-score),[2],2
same,glycan array binding signal (z-score),[3],-0.355
same,glycan array binding signal (z-score),[4],-0.386
same,glycan array binding signal (z-score),[5],0.661
same,glycan array binding signal (z-score),[6],0.367
same,glycan array binding signal (z-score),[7],-0.371
same,glycan array binding signal (z-score),[8],-0.397
same,glycan array binding signal (z-score),[9],-0.367
same,glycan array binding signal (z-score),[10],-0.398
same,glycan array binding signal (z-score),[11],2.62
same,glycan array binding signal (z-score),[12],-0.35
same,glycan array binding signal (z-score),[13],0.199
same,glycan array binding signal (z-score),[14],-0.398
same,glycan array binding signal (z-score),[15],-0.325
same,glycan array binding signal (z-score),[16],-0.339
same,glycan array binding signal (z-score),[17],-0.282
same,glycan array binding signal (z-score),[18],-0.388
same,glycan array binding signal (z-score),[19],-0.435
same,glycan array binding signal (z-score),[20],-0.331
same,glycan array binding signal (z-score),[21],-0.356
same,glycan array binding signal (z-score),[22],-0.316
same,glycan array binding signal (z-score),[23],1.05
same,glycan array binding signal (z-score),[24],-0.239
same,glycan array binding signal (z-score),[25],1.32
same,glycan array binding signal (z-score),[26],-0.296
same,glycan array binding signal (z-score),[27],-0.162
same,glycan array binding signal (z-score),[28],7.53
same,glycan array binding signal (z-score),[29],-0.186
same,glycan array binding signal (z-score),[30],-0.301

# — the supplement of paper PMC8728848
